The supplement of paper PMC4604168 (melanoma cell lines)
The list shows a part of the results. Repeats are few or missing, and single values can be far off.

System: C32
Experiment: cell count relative to DMSO control; melanoma cells; higher = more viable cells
Conditions: library dose: standard library concentration; 72 h
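Also: cells treated in 1,536-well plates, then fixed and DAPI-stained, with nuclei counted from automated high-throughput microscope images.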

| Compound | cell count |
| --- | --- |
| COc1ccc(C2=N[C@@H](c3ccc(Cl)cc3)[C@@H](c3ccc(Cl)cc3)N2C(=O)N2CCNC(=O)C2)c(OC(C)C)c1 [Nutlin-3] + Nc1nc(F)nc2c1ncn2[C@@H]1O[C@H](CO)[C@@H](O)[C@@H]1O [fludarabine] (first compound 0.5 µM, partner dose 1 µM) | 102% |
| Cn1c(=O)n(-c2ccc(C(C)(C)C#N)cc2)c2c3cc(-c4cnc5ccccc5c4)ccc3ncc21 + COc1ccc2c(c1)CCC1C2CCC2(C)C(NCCCCCCN3C(=O)C=CC3=O)CCC12 [U73122] (first compound 0.02 µM, partner dose 2 µM) | 65.9% |
| CC(C)C[C@H](NC(=O)[C@H](Cc1ccccc1)NC(=O)c1cnccn1)B(O)O [Bortezomib] + CC(=O)c1c(C)c2cnc(Nc3ccc(N4CCNCC4)cn3)nc2n(C2CCCC2)c1=O [palbociclib] (first compound 0.005 µM, partner dose 0.2 µM) | 36.6% |
| Cn1c(=O)n(-c2ccc(C(C)(C)C#N)cc2)c2c3cc(-c4cnc5ccccc5c4)ccc3ncc21 + Cn1cncc1[C@@](N)(c1ccc(Cl)cc1)c1ccc2c(c1)c(-c1cccc(Cl)c1)cc(=O)n2C [tipifarnib] (first compound 0.02 µM, partner dose 0.05 µM) | 90.3% |
| Cc1cc(Nc2cc(N3CCN(C)CC3)nc(/C=C/c3ccccc3)n2)n[nH]1 + CCN(CC)CCCCNc1ncc2cc(-c3cc(OC)cc(OC)c3)c(NC(=O)NC(C)(C)C)nc2n1 [PD173074] (first compound 0.2 µM, partner dose 0.5 µM) | 117% |
| Cc1cc(Nc2cc(N3CCN(C)CC3)nc(/C=C/c3ccccc3)n2)n[nH]1 + O=c1cc(-c2cccc3c2Sc2ccccc2S3)oc(N2CCOCC2)c1 [KU55933] (first compound 0.2 µM, partner dose 5 µM) | 83.6% |
| COc1ccc(C2=N[C@@H](c3ccc(Cl)cc3)[C@@H](c3ccc(Cl)cc3)N2C(=O)N2CCNC(=O)C2)c(OC(C)C)c1 [Nutlin-3] + Cn1nnc2c(C(N)=O)ncn2c1=O [temozolomide] (first compound 0.5 µM, partner dose 10 µM) | 68.3% |
| Cn1c(=O)n(-c2ccc(C(C)(C)C#N)cc2)c2c3cc(-c4cnc5ccccc5c4)ccc3ncc21 + Cn1cc(/C=C2\C(=O)Nc3cccnc32)c2ccccc21 [GW441756] (first compound 0.02 µM, partner dose 2 µM) | 83.5% |
| Cc1cc(Nc2cc(N3CCN(C)CC3)nc(/C=C/c3ccccc3)n2)n[nH]1 + O=C(Nc1cccc(Cl)c1)Nc1ncc(CCNc2ncnc3ccsc23)s1 [SNS314] (first compound 0.2 µM, partner dose 0.004 µM) | 73.9% |
| Cc1cn(-c2cc(NC(=O)c3ccc(C)c(Nc4nccc(-c5cccnc5)n4)c3)cc(C(F)(F)F)c2)cn1 [nilotinib] + C[C@@H](N)c1ccc(C(=O)Nc2ccnc3[nH]ccc23)cc1 [RKI983] (first compound 1 µM, partner dose 2 µM) | 69.4% |
| Cc1cc(Nc2cc(N3CCN(C)CC3)nc(/C=C/c3ccccc3)n2)n[nH]1 + CN1CCN(c2ccc3nc(-c4c(N)c5c(F)cccc5[nH]c4=O)[nH]c3c2)CC1 [Dovitinib] (first compound 0.2 µM, partner dose 0.5 µM) | 88.3% |
| Cc1cn(-c2cc(NC(=O)c3ccc(C)c(Nc4nccc(-c5cccnc5)n4)c3)cc(C(F)(F)F)c2)cn1 [nilotinib] + CCCCCCCCCCCC1=C(O)C(=O)C=C(O)C1=O [Embelin] (first compound 1 µM, partner dose 6 µM) | 112% |
| COc1ccc(C2=N[C@@H](c3ccc(Cl)cc3)[C@@H](c3ccc(Cl)cc3)N2C(=O)N2CCNC(=O)C2)c(OC(C)C)c1 [Nutlin-3] + O=C(O)[C@@H]1[O][Sb](=[O])([O][Sb]2(=[O])[O][C@H]([C@H](O)CO)[C@H](O)[C@H](C(=O)O)[O]2)[O][C@H]([C@H](O)CO)[C@@H]1O [stibogluconate] (first compound 0.5 µM, partner dose 10 µM) | 75.7% |
| CC(C)C[C@H](NC(=O)[C@H](Cc1ccccc1)NC(=O)c1cnccn1)B(O)O [Bortezomib] + C#Cc1cccc(Nc2ncnc3cc(OCCOC)c(OCCOC)cc23)c1 [erlotinib] (first compound 0.005 µM, partner dose 4 µM) | 43.3% |
| Cn1c(=O)n(-c2ccc(C(C)(C)C#N)cc2)c2c3cc(-c4cnc5ccccc5c4)ccc3ncc21 + CN(C)S(=O)(=O)c1ccc2c(c1)/C(=C/c1cc3c([nH]1)CCCC3)C(=O)N2 [SU6656] (first compound 0.02 µM, partner dose 2 µM) | 110% |
| Cn1c(=O)n(-c2ccc(C(C)(C)C#N)cc2)c2c3cc(-c4cnc5ccccc5c4)ccc3ncc21 + Nc1cccc2c1CN(C1CCC(=O)NC1=O)C2=O [lenalidomide] (first compound 0.02 µM, partner dose 5 µM) | 90.9% |
| Cc1cn(-c2cc(NC(=O)c3ccc(C)c(Nc4nccc(-c5cccnc5)n4)c3)cc(C(F)(F)F)c2)cn1 [nilotinib] + C[C@]1(c2nc3c(C(N)=O)cccc3[nH]2)CCCN1 [Veliparib] (first compound 1 µM, partner dose 7 µM) | 90.5% |
| Cn1c(=O)n(-c2ccc(C(C)(C)C#N)cc2)c2c3cc(-c4cnc5ccccc5c4)ccc3ncc21 + C=CCn1c(=O)c2cnc(Nc3ccc(N4CCN(C)CC4)cc3)nc2n1-c1cccc(C(C)(C)O)n1 [MK1775] (first compound 0.02 µM, partner dose 0.1 µM) | 68% |
| CC(C)C[C@H](NC(=O)[C@H](Cc1ccccc1)NC(=O)c1cnccn1)B(O)O [Bortezomib] + O=c1cc(-c2cccc3c2Sc2ccccc2S3)oc(N2CCOCC2)c1 [KU55933] (first compound 0.005 µM, partner dose 5 µM) | 17.9% |
| Cc1cc(Nc2cc(N3CCN(C)CC3)nc(/C=C/c3ccccc3)n2)n[nH]1 + O=C(O)c1ccc(-c2c[nH]c3ncc(-c4ccccc4)cc23)cc1C1CCCC1 [GSK650394] (first compound 0.2 µM, partner dose 0.8 µM) | 79.6% |
| Cc1cc(Nc2cc(N3CCN(C)CC3)nc(/C=C/c3ccccc3)n2)n[nH]1 + Nc1cccc2c1CN(C1CCC(=O)NC1=O)C2=O [lenalidomide] (first compound 0.2 µM, partner dose 5 µM) | 120% |
| Cn1c(=O)n(-c2ccc(C(C)(C)C#N)cc2)c2c3cc(-c4cnc5ccccc5c4)ccc3ncc21 + CS(=O)(=O)CCNCc1ccc(-c2ccc3ncnc(Nc4ccc(OCc5cccc(F)c5)c(Cl)c4)c3c2)o1 [lapatinib] (first compound 0.02 µM, partner dose 4 µM) | 81.5% |
| COc1ccc(C2=N[C@@H](c3ccc(Cl)cc3)[C@@H](c3ccc(Cl)cc3)N2C(=O)N2CCNC(=O)C2)c(OC(C)C)c1 [Nutlin-3] + CCCS(=O)(=O)Nc1ccc(F)c(C(=O)c2c[nH]c3ncc(Cl)cc23)c1F [PLX4720] (first compound 0.5 µM, partner dose 0.4 µM) | 80.3% |
| CC(C)C[C@H](NC(=O)[C@H](Cc1ccccc1)NC(=O)c1cnccn1)B(O)O [Bortezomib] + C=CCn1c(=O)c2cnc(Nc3ccc(N4CCN(C)CC4)cc3)nc2n1-c1cccc(C(C)(C)O)n1 [MK1775] (first compound 0.005 µM, partner dose 0.1 µM) | 32.6% |
| Cn1c(=O)n(-c2ccc(C(C)(C)C#N)cc2)c2c3cc(-c4cnc5ccccc5c4)ccc3ncc21 + CC(C)C[C@H](NC(=O)[C@H](Cc1ccccc1)NC(=O)c1cnccn1)B(O)O [Bortezomib] (first compound 0.02 µM, partner dose 0.005 µM) | 54.8% |
| Cc1cc(Nc2cc(N3CCN(C)CC3)nc(/C=C/c3ccccc3)n2)n[nH]1 + Cc1cc([N+](=O)[O-])ccc1NS(=O)(=O)c1cc(Cl)ccc1Cl [FH535] (first compound 0.2 µM, partner dose 5 µM) | 90% |
| Cc1cn(-c2cc(NC(=O)c3ccc(C)c(Nc4nccc(-c5cccnc5)n4)c3)cc(C(F)(F)F)c2)cn1 [nilotinib] + COc1cc(N2CCC(N3CCN(C)CC3)CC2)ccc1Nc1ncc(Cl)c(Nc2ccccc2S(=O)(=O)C(C)C)n1 [NVP-TAE684] (first compound 1 µM, partner dose 0.4 µM) | 86.8% |
| CC(C)C[C@H](NC(=O)[C@H](Cc1ccccc1)NC(=O)c1cnccn1)B(O)O [Bortezomib] + O=C(O)C(=O)Nc1sc2c(c1C(=O)O)CCNC2 [TCS401] (first compound 0.005 µM, partner dose 8.33333 µM) | 33.5% |
| CC(C)C[C@H](NC(=O)[C@H](Cc1ccccc1)NC(=O)c1cnccn1)B(O)O [Bortezomib] + CC(C)CCN1c2nc(Nc3cc(F)c(O)c(F)c3)ncc2N(C)C(=O)C1C [BID1870] (first compound 0.005 µM, partner dose 1 µM) | 26.6% |
| Cc1cn(-c2cc(NC(=O)c3ccc(C)c(Nc4nccc(-c5cccnc5)n4)c3)cc(C(F)(F)F)c2)cn1 [nilotinib] + NC(=O)c1ccc(N(C(N)=O)c2c(F)cccc2F)nc1-c1ccc(F)cc1F [VX702] (first compound 1 µM, partner dose 2 µM) | 113% |
